# From paper PMC4336329 (PLoS ONE, 2015)
# About 14,000 (4.5%) of roughly 310,000 compounds showed an effect of 50% or more. Effects have a minus sign here. The list shows a part of the results.
# Molecular target: human ether-à-go-go-related gene (hERG) potassium channel (human, UniProt Q12809)
# Test: primary screen, population patch clamp on CHO cells stably expressing hERG
# 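Further: peak tail current of the secondary pulse compared with the same well before compound.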
# Chain of human ether-à-go-go-related gene (hERG) potassium channel (Q12809 whole entry, looked up): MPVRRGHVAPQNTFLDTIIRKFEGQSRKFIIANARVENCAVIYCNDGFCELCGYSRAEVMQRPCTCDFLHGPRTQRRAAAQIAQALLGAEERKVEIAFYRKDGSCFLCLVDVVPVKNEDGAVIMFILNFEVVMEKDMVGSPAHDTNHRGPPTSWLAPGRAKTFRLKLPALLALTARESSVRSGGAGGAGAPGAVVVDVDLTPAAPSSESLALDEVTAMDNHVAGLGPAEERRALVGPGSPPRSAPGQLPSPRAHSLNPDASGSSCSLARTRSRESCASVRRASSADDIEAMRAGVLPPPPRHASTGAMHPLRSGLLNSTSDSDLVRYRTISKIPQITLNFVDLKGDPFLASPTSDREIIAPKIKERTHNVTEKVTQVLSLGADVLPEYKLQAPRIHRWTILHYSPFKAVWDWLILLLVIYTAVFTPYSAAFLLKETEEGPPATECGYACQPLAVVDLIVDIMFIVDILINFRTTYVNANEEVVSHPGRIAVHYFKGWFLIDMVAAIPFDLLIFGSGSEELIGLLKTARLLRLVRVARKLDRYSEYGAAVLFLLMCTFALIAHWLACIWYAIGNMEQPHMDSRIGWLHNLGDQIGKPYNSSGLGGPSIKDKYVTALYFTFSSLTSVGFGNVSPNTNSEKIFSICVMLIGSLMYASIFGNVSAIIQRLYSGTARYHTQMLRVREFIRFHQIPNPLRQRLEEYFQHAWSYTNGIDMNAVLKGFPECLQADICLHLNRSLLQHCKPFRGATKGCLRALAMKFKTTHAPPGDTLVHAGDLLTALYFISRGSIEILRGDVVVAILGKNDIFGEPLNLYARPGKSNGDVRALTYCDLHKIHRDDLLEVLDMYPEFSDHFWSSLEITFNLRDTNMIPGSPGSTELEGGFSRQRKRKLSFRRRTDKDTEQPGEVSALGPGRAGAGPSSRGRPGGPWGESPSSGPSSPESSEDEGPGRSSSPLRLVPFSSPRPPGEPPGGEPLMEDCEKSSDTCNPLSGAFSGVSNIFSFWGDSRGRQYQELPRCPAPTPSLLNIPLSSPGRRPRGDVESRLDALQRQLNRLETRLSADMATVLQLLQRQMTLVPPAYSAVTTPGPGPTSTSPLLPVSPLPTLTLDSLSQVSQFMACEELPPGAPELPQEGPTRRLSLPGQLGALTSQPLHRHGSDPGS
row,SMILES,"hERG current change (%, negative = inhibition) at 10uM [%]"
1,Cc1ccc(C(=O)NCCn2cc(SCC(=O)Nc3cc(C)on3)c3ccccc32)cc1,10.6
2,CC12CCCCN1CCCc1c2[nH]c2ccccc12.Cl (stereo not shown),-29.4
3,COc1ccccc1-c1sc2ccccc2c1-c1ccc(Br)nc1,17.3
4,CC1CCCCC1NC(=O)c1ccc(CNc2c(N3CCCC3)c(=O)c2=O)cc1 (stereo not shown),14.3
5,N#CC(C(=O)NC1CCCCC1)=C1CCCCCC1,0.321
6,CC(C)N1C(=O)C(O)(C2COC(C)(C)CC2=O)c2ccccc21 (stereo not shown),24.1
7,Cc1ccccc1Cc1c(C)nc2c(C(=O)N3CCN(Cc4ccc5c(c4)OCO5)CC3)cnn2c1C,-19.7
8,O=C(CCCc1nc2ccccc2s1)NC(c1ccccc1)c1ccccc1,-5.52
9,Cc1nc2ccc(S(=O)(=O)NCC(=O)Nc3ccc(F)cc3)cc2s1,13.5
10,O=C(NCc1ccccc1)c1ccc(NS(=O)(=O)c2cccs2)cc1,-5.55
11,CCCc1nnc(SCc2ccc(OC)cc2)n1N,2.77
12,COc1ccc(NC2CCCN(C(=O)c3cc(CC(C)C)nc(N)n3)C2)cc1 (stereo not shown),0.682
13,Cc1ccc(OCCCn2cc(C#N)c3ccccc32)cc1,0.608
14,O=C(Cn1ncc2c([nH]c3ccccc32)c1=O)Nc1cccnc1,10.3
15,CCN(CC)CCC#CC(O)(c1ccccc1)C1CCCCC1 (stereo not shown),-45.5
16,N#C/C(=C\c1ccc(-c2cccc(Cl)c2)o1)C(=O)Nc1cccc2cccnc12,13.2
17,CC(=O)Nc1ccc(S(=O)(=O)N2C(C)CCCC2C)cc1 (stereo not shown),8.62
18,CCOC(=O)N1CCC(Nc2c(Nc3cccc(CC)c3)c(=O)c2=O)CC1,-11.1
19,O=C(NNS(=O)(=O)c1ccccc1)c1cccnc1,-4.97
20,CC/C(=N\NC(=O)c1ccccc1)c1c(O)n(Cc2ccccc2)c(=O)[nH]c1=O,15.5
21,CSC1=NC2(C[C@H]2c2ccccc2)C(=O)N1C (stereo partly shown),16.9
22,Cc1cccc2c(=O)c(-c3ccc(Cl)cc3)c(NC(=O)c3ccco3)oc12,15.3

row,SMILES,"hERG current change (%, negative = inhibition) at 10uM [%]"
1,CC1CCN(S(=O)(=O)N2CCC(C(=O)NCc3ccc4c(c3)OCO4)CC2)CC1,6.73
2,CCOC(=O)Cn1c(=O)oc2cc(S(=O)(=O)NC(C)(C)CC)ccc21,4.23
3,Cc1ccc(C2=NN(S(C)(=O)=O)C(c3ccc4nccnc4c3)C2)cc1 (stereo not shown),-3.61
4,CSc1ccccc1NC(=O)C1=CC(c2ccc(C)cc2)=NS(=O)(=O)N1C,-12.3
5,COC(=O)C1=C(C)NC2=C(C(=O)CC(c3cccs3)C2)C1c1ccsc1 (stereo not shown),2.81
6,CCCCc1c(C)c2ccc(OCC(C)=O)cc2oc1=O,-10.6
7,CC(=O)NC(C)C(=O)OCc1ccc(Cl)cc1Cl (stereo not shown),5.38
8,N#CC1=C(Nc2ccccc2)SC=C(c2ccc(Cl)c(Cl)c2)N=C1N1CCOCC1,-50.9
9,CCN(CCNC(=O)c1ccc2nc(-c3ccccc3NC(C)=O)c(=O)[nH]c2c1)c1ccccc1,8.62
10,CC(=O)Nc1cccc(OCC(=O)NCCC2=CCCCC2)c1,-0.744
11,Oc1ccc(NCc2cccc(OCc3ccccc3)c2)cc1,-9.81
12,O=C(COc1ccccc1)Nc1cc(S(=O)(=O)N2CCOCC2)ccc1N1CCCC1,-8.47
13,COc1cc(SC#N)ccc1N=Cc1c(C)[nH]n(-c2cccc3ccccc23)c1=O,17.8
14,Cc1ccc(-c2nc(C#N)c(NCC3CCCO3)o2)cc1 (stereo not shown),-0.109
15,Cc1ccc(NC(=O)COC(=O)CCC(=O)c2ccc(C(C)(C)C)cc2)c([N+](=O)[O-])c1,25.4
16,COc1ccc(NC(=O)CCOc2ccc(C)cc2)c(OC)c1,18.3
17,CC1Cc2ccccc2N1S(=O)(=O)c1ccc2c(c1)n(C)c(=O)c(=O)n2C (stereo not shown),-3.54
18,CCc1c(C(=O)Nc2cc(C)cc(C)c2)[nH]c(C)c1C(C)=O,12.7
19,COc1ccc(CCNC(=O)c2ccc(N3CCCC3=O)cc2)cc1OC,15.3
20,O=C(O)Cn1nnn(-c2ccccc2)c1=S,9.48
21,CC(C)C[C@H]1C(=O)N2CCC[C@H]2[C@]2(O)O[C@](NC(=O)C3C=C4c5cccc6[nH]c(Br)c(c56)C[C@H]4N(C)C3)(C(C)C)C(=O)N12.CS(=O)(=O)O (stereo partly shown),20.4
22,Cc1nc(Nc2cccc(C(F)(F)F)c2)nc2c1C(=O)CC(C)C2 (stereo not shown),13.8

row,SMILES,"hERG current change (%, negative = inhibition) at 10uM [%]"
1,COc1ccc(/C(O)=C2/C(=O)C(=O)N(c3ccccn3)C2c2ccc(F)cc2)cc1 (stereo not shown),35.2
2,Cc1ccc(CC2CC(=O)N(c3ccc4c(c3)OCCO4)C2=O)cc1 (stereo not shown),-9.24
3,CCc1cccc(CC)c1NC(=S)NCC(c1cccnc1)N(C)C (stereo not shown),0.113
4,CC(C)CC(NC(N)=O)C(=O)OCC(=O)Nc1ccc(SC(F)F)cc1 (stereo not shown),-19.8
5,COc1ccc(OC)c(N=Cc2c(O)n(Cc3ccccc3)c(=S)[nH]c2=O)c1,7.43
6,CN1CCN(C(=O)C23CC4CC(CC(C4)C2)C3)CC1,5.32
7,COc1cc2c(cc1NC(=O)COC(=O)C1CC(=O)N(Cc3ccco3)C1)oc1ccccc12 (stereo not shown),11.5
8,Cn1cc[n+](C)c1P(=S)(c1ccccc1)c1ccccc1.[Cl-],9.69
9,CCCN1c2cccc3cccc(c23)S1(=O)=O,-8.12
10,COc1ccccc1OCC(=O)NCCS(=O)(=O)N1CCN(c2ccccc2)CC1,-44.4
11,CCc1cc(=O)[nH]c(SCCC(F)=C(F)F)n1,27.7
12,CC1(C)CC(CCC(=O)NC(=S)Nc2ccccc2Cl)C(=O)O1 (stereo not shown),-3.38
13,CCN1CCN(CCCNC(=O)CS(=O)(=O)Cc2nc(-c3cccc(OC)c3)oc2C)CC1,-4.71
14,CN=C1CC(C)(C)CC(=O)/C1=C(/O)CCCN1C(=O)c2ccccc2C1=O,1.61
15,O=C(CN1C(=O)c2cccnc2Oc2ccc(Cl)cc21)Nc1ccccc1F,-17
16,Cc1ccc2c(c1)N(CC(=O)NC1CCCCC1)C(=O)c1cccnc1O2,-3.84
17,c1ccc2c(c1)nc(NCCN1CCOCC1)c1nncn12,5.92
18,Oc1c(CN2CCOCC2)cc(-c2ccccc2)cc1CN1CCOCC1,-12.7
19,Cc1occc1-c1nnc(SCC(=O)Nc2ccc(F)cc2)n1C,-24.8
20,Cc1noc(C)c1CSc1nc2ccccc2c(=O)n1-c1ccccc1,-15.9
21,O=C(COC(=O)CNS(=O)(=O)c1ccccc1)Nc1ccc(Cl)cn1,-5.46
22,Cc1cc(C)nc(NNC2=CC(=O)CC(C)(C)C2)n1,11.9

row,SMILES,"hERG current change (%, negative = inhibition) at 10uM [%]"
1,CCN(C(=O)CN1CCOCC1)C1(C)C(=O)c2ccccc2C1=O.Cl,12
2,CSCCC(NC(=O)c1ccccc1)C(=O)NCc1ccco1 (stereo not shown),-11.8
3,O=C(CCC1CCCN(Cc2ccncc2)C1)NCc1ccc(F)c(F)c1 (stereo not shown),-13.6
4,COc1ccc(CSCC(=O)NCCC(C)C)cc1,-5.91
5,COc1cc2c(c(OC)c1OC)-c1ccc(O)cc1[C@@H](NC(C)=O)CC2,7.88
6,O=C(NCCc1ccccn1)c1nc(Cn2cc(Br)cn2)no1,11.4
7,O=C(COC(=O)/C=C/c1ccccc1)NCC1CCCO1 (stereo not shown),16.7
8,CN(C)/C=C(/C(=O)c1ccccc1Cl)S(=O)(=O)c1ccccc1,8.64
9,COc1cc(/C=C(/C)[N+](=O)[O-])ccc1OCc1ccccc1Cl,17.3
10,COc1ccc(C(=O)N[C@H](C(=O)NCc2cccs2)C(C)C)cc1,15.1
11,CC1CC(C)CN(CCCNS(=O)(=O)c2cc(Br)cc3c2N(C(=O)C2CC2)CC3)C1 (stereo not shown),-14.6
12,COc1ccc(CCNC(=O)c2ccc(CS(=O)(=O)c3ccc(C)cc3)o2)cc1OC,-8.2
13,c1ccc(N2CCN(c3ncccn3)CC2)cc1,-3.68
14,CCCCOc1ccccc1C1NC(=O)NC(C)=C1C(=O)OCc1ccco1 (stereo not shown),13
15,c1ccc(CN2CCCC3(CCCN(Cc4nc(COc5ccccc5)no4)C3)C2)cc1 (stereo not shown),-69.3
16,C[N+]1(CC(O)c2ccccc2)CCCCCC1.[I-] (stereo not shown),17.8
17,O=C(NCC(=O)N1CCCC1)c1ccc(Br)cc1,16.3
18,Cc1ccc(S(=O)(=O)N2CCN(C(=O)/C=C/c3ccco3)CC2)cc1,-35.1
19,O=C(/C=C/Nc1cccc([N+](=O)[O-])c1)c1cccs1,-3.94
20,CCNc1nc(NCC)nc(N/N=C/c2ccccc2)n1,4.81
21,COc1cccc(S(=O)(=O)Nc2cccc(C(=O)N3CCCCCC3)c2)c1,-0.841
22,C[C@H](NC(=O)NCc1cccs1)C(=O)O,5.23
